Experimental data taken from a collection of fitness landscapes (doi:10.1016/j.celrep.2020.107928).
Whole data set: some 81,000 sequences, median “one-hybrid fitness for binding parS DNA” near -0.17, cut for the highest 2% near 0.51. The list shows a part of the results.

B1: Caulobacter ParB omega fusion; a variant is named by its letters at X, in order, B8GW30 (parent)
chain: MESVVVGEPGMSEGRRGLGRGLSALLGEVDAAPAQAPGEQLGGSREAPIEILQRNPDQPRRTFREEDLEDLSNSIREKGVLQPILVRPSPDTAGEYQIVAGERAWRAAQRAGLKTVPIMVRELDDLAVLEIGIIENVQRADLNVLEEALSYKVLMEKFERTQENIAQTIGKSXSHVANXMRLLXLPDEVQSYLVSGELTAXHARAIAAAADPVALAKQIIEGGLSVRETEALARKAPNLSAGKSKGGRPPRVKDTDTQALESDLSSVLGLDVSIDHRGSTGTLTITYATLEQLDDLCNRLTRGI

Variants of: B1
Assay: one-hybrid fitness for binding parS DNA (scaled: cognate 1, non-cognate 0); higher = stronger binding
Settings: with parS DNA site
Method in brief: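 Fitness is the rescaled log change in variant-to-wild-type read ratio, measured by Illumina sequencing of plasmids before and after bacterial one-hybrid selection. The scale puts cognate at 1 and non-cognate at 0. Selection of Caulobacter ParB libraries, four specificity codons randomised, took place in E. coli USO with a HIS3 reporter, site 19 bp from the promoter, over 48 hours at 37°C on M9-minus-histidine with 0.1 mM IPTG and 5 mM 3-AT.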

| Variant | one-hybrid fitness for binding parS DNA |
| --- | --- |
| ECNS | ≤ 0.2 |
| WRRL | ≤ 0.2 |
| YELK | ≤ 0.2 |
| RFWK | ≤ 0.2 |
| PNVS | ≤ 0.2 |
| HWHY | ≤ 0.2 |
| EPRV | ≤ 0.2 |
| IKNF | ≤ 0.2 |
| TYCR | ≤ 0.2 |
| QAVK | ≤ 0.2 |
| TLDQ | ≤ 0.2 |
| HRRA | ≤ 0.2 |
| FCHC | ≤ 0.2 |
| IKNK | ≤ 0.2 |
| CAWK | ≤ 0.2 |
| MKRG | ≤ 0.2 |
| HAPY | ≤ 0.2 |
| YEPR | ≤ 0.2 |
| NPGV | ≤ 0.2 |
| AWDM | ≤ 0.2 |
| ANNR | ≤ 0.2 |
| GVTC | ≤ 0.2 |
| LQNV | ≤ 0.2 |
| DKTS | ≤ 0.2 |

| Variant | one-hybrid fitness for binding parS DNA |
| --- | --- |
| FMKG | ≤ 0.2 |
| LSRK | ≤ 0.2 |
| QSPT | ≤ 0.2 |
| PDKV | ≤ 0.2 |
| PVSW | ≤ 0.2 |
| TKDG | ≤ 0.2 |
| GQRF | ≤ 0.2 |
| EHFC | ≤ 0.2 |
| HFAR | ≤ 0.2 |
| PLFL | ≤ 0.2 |
| HFCA | ≤ 0.2 |
| LRCS | ≤ 0.2 |
| CWTM | ≤ 0.2 |
| KAAP | ≤ 0.2 |
| LPIW | ≤ 0.2 |
| ASMG | ≤ 0.2 |
| TMLC | ≤ 0.2 |
| RNDP | ≤ 0.2 |
| NENT | ≤ 0.2 |
| IKPT | ≤ 0.2 |
| QSYR | ≤ 0.2 |
| NAPR | ≤ 0.2 |
| NPCS | ≤ 0.2 |
| VSCL | ≤ 0.2 |

| Variant | one-hybrid fitness for binding parS DNA |
| --- | --- |
| FFIR | ≤ 0.2 |
| QVNE | ≤ 0.2 |
| DVKC | ≤ 0.2 |
| DLSH | ≤ 0.2 |
| CRTH | ≤ 0.2 |
| RGWE | ≤ 0.2 |
| KLEV | ≤ 0.2 |
| WTFG | ≤ 0.2 |
| EAAT | ≤ 0.2 |
| RGYD | ≤ 0.2 |
| WTTW | ≤ 0.2 |
| RRSR | ≤ 0.2 |
| EPSE | ≤ 0.2 |
| TEKS | ≤ 0.2 |
| RPHV | ≤ 0.2 |
| SALL | ≤ 0.2 |
| WVYD | ≤ 0.2 |
| WGQT | ≤ 0.2 |
| PSYS | ≤ 0.2 |
| SMSS | ≤ 0.2 |
| RYYE | ≤ 0.2 |
| MYSS | ≤ 0.2 |
| WPYA | ≤ 0.2 |
| ARIY | ≤ 0.2 |

| Variant | one-hybrid fitness for binding parS DNA |
| --- | --- |
| RNIA | 0.265 |
| TSDT | ≤ 0.2 |
| PSKD | ≤ 0.2 |
| RARQ | ≤ 0.2 |
| ADQE | ≤ 0.2 |
| ESYG | ≤ 0.2 |
| RCFS | 1.03 |
| YNMN | ≤ 0.2 |
| ESND | ≤ 0.2 |
| SFTT | ≤ 0.2 |
| WLVY | ≤ 0.2 |
| GGQH | ≤ 0.2 |
| HWGT | ≤ 0.2 |
| QNDA | ≤ 0.2 |
| CRTV | ≤ 0.2 |
| GWMR | ≤ 0.2 |
| IRAI | ≤ 0.2 |
| FARL | ≤ 0.2 |
| SDST | ≤ 0.2 |
| RISC | 0.969 |
| WRLC | ≤ 0.2 |
| REWM | ≤ 0.2 |
| PAIN | ≤ 0.2 |
| LRLN | ≤ 0.2 |

| Variant | one-hybrid fitness for binding parS DNA |
| --- | --- |
| RFGG | 0.918 |
| NMKE | ≤ 0.2 |
| SRAD | ≤ 0.2 |
| CGAK | ≤ 0.2 |
| TRRE | ≤ 0.2 |
| RFGD | ≤ 0.2 |
| PFFS | ≤ 0.2 |
| RYKA | 0.793 |
| PARD | ≤ 0.2 |
| HSIK | ≤ 0.2 |
| VLSN | ≤ 0.2 |
| RQAW | 0.228 |
| PIIS | ≤ 0.2 |
| RSIP | ≤ 0.2 |
| LMAM | ≤ 0.2 |
| AQEA | ≤ 0.2 |
| LRWG | ≤ 0.2 |
| FPPN | ≤ 0.2 |
| RSYC | 0.931 |
| PAYL | ≤ 0.2 |
| CDTQ | ≤ 0.2 |
| YNSP | ≤ 0.2 |
| RMWF | ≤ 0.2 |
| RIKS | 0.822 |

| Variant | one-hybrid fitness for binding parS DNA |
| --- | --- |
| GSDC | ≤ 0.2 |
| CMHC | ≤ 0.2 |
| ETPE | ≤ 0.2 |
| GTSC | ≤ 0.2 |
| SQAA | ≤ 0.2 |
| HCTG | ≤ 0.2 |
| RIGL | ≤ 0.2 |
| LGLC | ≤ 0.2 |
| EWGG | ≤ 0.2 |
| APQA | ≤ 0.2 |
| VHNL | ≤ 0.2 |
| CHMS | ≤ 0.2 |
| KKPS | ≤ 0.2 |
| SCPF | ≤ 0.2 |
| NHPF | ≤ 0.2 |
| PTEW | ≤ 0.2 |
| PKES | ≤ 0.2 |
| YMRR | ≤ 0.2 |
| NDEK | ≤ 0.2 |
| SHSR | ≤ 0.2 |
| QYYM | ≤ 0.2 |
| TDTY | ≤ 0.2 |
| RNPM | ≤ 0.2 |
| PLMD | ≤ 0.2 |

| Variant | one-hybrid fitness for binding parS DNA |
| --- | --- |
| NSRW | ≤ 0.2 |
| LKMN | ≤ 0.2 |
| WQSS | ≤ 0.2 |
| GLCD | ≤ 0.2 |
| YFQS | ≤ 0.2 |
| TCRQ | ≤ 0.2 |
| KKDR | ≤ 0.2 |
| YEGF | ≤ 0.2 |
| QLHD | ≤ 0.2 |
| RAVE | ≤ 0.2 |
| RDFY | ≤ 0.2 |
| ASCR | ≤ 0.2 |
| VVCV | ≤ 0.2 |
| RTPI | ≤ 0.2 |
| SCRH | ≤ 0.2 |
| LTMN | ≤ 0.2 |
| EPEG | ≤ 0.2 |
| WDES | ≤ 0.2 |
| AGRW | ≤ 0.2 |
| ETNA | ≤ 0.2 |
| PDIN | ≤ 0.2 |
| SIAC | ≤ 0.2 |
| QRMC | ≤ 0.2 |
| RWPP | ≤ 0.2 |

| Variant | one-hybrid fitness for binding parS DNA |
| --- | --- |
| AKGN | ≤ 0.2 |
| AHVL | ≤ 0.2 |
| ATPH | ≤ 0.2 |
| SGDW | ≤ 0.2 |
| TGHL | ≤ 0.2 |
| PHTC | ≤ 0.2 |
| NDYS | ≤ 0.2 |
| CAIM | ≤ 0.2 |
| IAAD | ≤ 0.2 |
| AVKD | ≤ 0.2 |
| YLTD | ≤ 0.2 |
| NANV | ≤ 0.2 |
| QMDE | ≤ 0.2 |
| TQFD | ≤ 0.2 |
| QLHF | ≤ 0.2 |
| ATVT | ≤ 0.2 |
| YFTT | ≤ 0.2 |
| NRQG | ≤ 0.2 |
| SEAA | ≤ 0.2 |
| SLGQ | ≤ 0.2 |
| YDTN | ≤ 0.2 |
| TLPC | ≤ 0.2 |
| SPQC | ≤ 0.2 |
| LDDG | ≤ 0.2 |

| Variant | one-hybrid fitness for binding parS DNA |
| --- | --- |
| IHRR | ≤ 0.2 |
| CHSA | ≤ 0.2 |
| QKPH | ≤ 0.2 |
| RVRN | 0.409 |
| HKSV | ≤ 0.2 |
| LCMG | ≤ 0.2 |
| ECSR | ≤ 0.2 |
| ALSN | ≤ 0.2 |
| YPRD | ≤ 0.2 |
| ACPR | ≤ 0.2 |
| HPKR | ≤ 0.2 |
| CFLT | ≤ 0.2 |
| PWRG | ≤ 0.2 |
| HLRH | ≤ 0.2 |
| EYHN | ≤ 0.2 |
| VYKQ | ≤ 0.2 |
| SSLW | ≤ 0.2 |
| MHPT | ≤ 0.2 |
| TQKF | ≤ 0.2 |
| LIKF | ≤ 0.2 |
| LYMN | ≤ 0.2 |
| MYIR | ≤ 0.2 |
| YLIG | ≤ 0.2 |
| HVKG | ≤ 0.2 |

| Variant | one-hybrid fitness for binding parS DNA |
| --- | --- |
| RVPF | ≤ 0.2 |
| VSLW | ≤ 0.2 |
| HCVK | ≤ 0.2 |
| ERQR | ≤ 0.2 |
| PKYP | ≤ 0.2 |
| TTHK | ≤ 0.2 |
| QYMI | ≤ 0.2 |
| VSLT | ≤ 0.2 |
| DDVI | ≤ 0.2 |
| ITGG | ≤ 0.2 |
| GVCL | ≤ 0.2 |
| DNWC | ≤ 0.2 |
| SGRQ | ≤ 0.2 |
| NEHP | ≤ 0.2 |
| QKDF | ≤ 0.2 |
| TKRL | ≤ 0.2 |
| NYVS | ≤ 0.2 |
| VTVS | ≤ 0.2 |
| LHYD | ≤ 0.2 |
| WTMR | ≤ 0.2 |
| HCTS | ≤ 0.2 |
| HITN | ≤ 0.2 |
| WRDK | ≤ 0.2 |
| QAKQ | ≤ 0.2 |

| Variant | one-hybrid fitness for binding parS DNA |
| --- | --- |
| LPMY | ≤ 0.2 |
| YEKS | ≤ 0.2 |
| EVLC | ≤ 0.2 |
| VYHN | ≤ 0.2 |
| FRIS | ≤ 0.2 |
| QLWN | ≤ 0.2 |
| NHFL | ≤ 0.2 |
| LYGC | ≤ 0.2 |
| ERPA | ≤ 0.2 |
| FQAT | ≤ 0.2 |
| DQQL | ≤ 0.2 |
| LPNL | ≤ 0.2 |
| SVSH | ≤ 0.2 |
| TRPA | ≤ 0.2 |
| RFVK | ≤ 0.2 |
| GNKR | ≤ 0.2 |
| VHPR | ≤ 0.2 |
| PRPL | ≤ 0.2 |
| KGIG | ≤ 0.2 |
| KYTS | ≤ 0.2 |
| QRQV | ≤ 0.2 |
| TYNV | ≤ 0.2 |
| VHRA | ≤ 0.2 |
| GTTE | ≤ 0.2 |

| Variant | one-hybrid fitness for binding parS DNA |
| --- | --- |
| RDFK | ≤ 0.2 |
| MKYG | ≤ 0.2 |
| RHWS | 0.925 |
| PTEE | ≤ 0.2 |
| ICHW | ≤ 0.2 |
| PKSL | ≤ 0.2 |
| QCIW | ≤ 0.2 |
| NIAC | ≤ 0.2 |
| EEMF | ≤ 0.2 |
| TAKS | ≤ 0.2 |
| QRFP | ≤ 0.2 |
| NFKG | ≤ 0.2 |
| EHAV | ≤ 0.2 |
| RFTY | 0.457 |
| LHAP | ≤ 0.2 |
| QDLR | ≤ 0.2 |
| TVHY | ≤ 0.2 |
| PRCK | ≤ 0.2 |
| QYYE | ≤ 0.2 |
| FPLH | ≤ 0.2 |
| PGTK | ≤ 0.2 |
| TENP | ≤ 0.2 |
| HNDM | ≤ 0.2 |
| THRS | ≤ 0.2 |

| Variant | one-hybrid fitness for binding parS DNA |
| --- | --- |
| PSMA | ≤ 0.2 |
| IMYG | ≤ 0.2 |
| TSPW | ≤ 0.2 |
| QPGH | ≤ 0.2 |
| WPIP | ≤ 0.2 |
| VQGG | ≤ 0.2 |
| QCVI | ≤ 0.2 |
| LLNT | ≤ 0.2 |
| SMFI | ≤ 0.2 |
| RMLG | 1.01 |
| GPVY | ≤ 0.2 |
| LPPY | ≤ 0.2 |
| HCDI | ≤ 0.2 |
| SMCG | ≤ 0.2 |
| LWRT | ≤ 0.2 |
| KTRD | ≤ 0.2 |
| RQNM | 0.325 |
| ECPR | ≤ 0.2 |
